Data published in the supplement of paper PMC8728848.
The other results are listed elsewhere or left out.

Legend:
Test in all cases: glycan array binding signal (z-score within array); higher = stronger binding
Settings in all cases: glycan notation: IUPAC condensed, linker removed
[1] = target: Gal(b1-4)GlcNAc(b1-3)Gal(b1-4)GlcNAc(b1-3)[Gal(b1-4)GlcNAc(b1-3)Gal(b1-4)GlcNAc(b1-6)]GalNAc
How it was run: (§1)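 The binding signal is a Z-score computed within each array. Data were drawn from 3228 arrays in the Consortium for Functional Glycomics database, restricted to those with a known protein sequence. Scores were averaged over arrays of the same protein sequence at different concentrations or buffers, and over linkers, and negative values can be taken as non-binding.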

[2] = target: Gal(b1-4)GlcNAc(b1-3)Gal(b1-4)GlcNAc(b1-6)[Gal(b1-3)]GalNAc
How it was run: as §1

[3] = target: Gal(b1-4)GlcNAc(b1-3)Gal(b1-4)[Fuc(a1-3)]GlcNAc(b1-3)Gal(b1-4)[Fuc(a1-3)]GlcNAc
How it was run: as §1

[4] = target: Gal(b1-4)GlcNAc(b1-3)GalNAc
How it was run: as §1

[5] = target: Gal(b1-4)GlcNAc(b1-3)[Fuc(a1-3)GlcNAc(b1-6)]Gal(b1-4)Glc
How it was run: as §1

[6] = target: Gal(b1-4)GlcNAc(b1-3)[Gal(b1-4)GlcNAc(b1-6)]Gal(b1-4)GlcNAc
How it was run: as §1

[7] = target: Gal(b1-4)GlcNAc(b1-3)[GlcNAc(b1-6)]Gal(b1-4)GlcNAc
How it was run: as §1

[8] = target: Gal(b1-4)GlcNAc(b1-6)Gal(b1-4)GlcNAc
How it was run: as §1

[9] = target: Gal(b1-4)GlcNAc(b1-6)GalNAc
How it was run: as §1

[10] = target: Gal(b1-4)GlcNAc(b1-6)[Gal(b1-3)]GalNAc
How it was run: as §1

[11] = target: Gal(b1-4)GlcNAc(b1-6)[Gal(b1-4)GlcNAc(b1-3)]GalNAc
How it was run: as §1

Gal(b1-4)GlcNAc6P = target: Gal(b1-4)GlcNAc6P
How it was run: as §1

Gal(b1-6)Gal = target: Gal(b1-6)Gal
How it was run: as §1

Gal3S(b1-3)GalNAc = target: Gal3S(b1-3)GalNAc
How it was run: as §1

Gal3S(b1-3)GlcNAc = target: Gal3S(b1-3)GlcNAc
How it was run: as §1

[12] = target: Gal3S(b1-3)[Fuc(a1-4)]GlcNAc
How it was run: as §1

Gal3S(b1-4)Glc = target: Gal3S(b1-4)Glc
How it was run: as §1

Gal3S(b1-4)Glc6S = target: Gal3S(b1-4)Glc6S
How it was run: as §1

Gal3S(b1-4)GlcNAc = target: Gal3S(b1-4)GlcNAc
How it was run: as §1

[13] = target: Gal3S(b1-4)[Fuc(a1-3)]Glc6S
How it was run: as §1

[14] = target: Gal3S(b1-4)[Fuc(a1-3)]GlcNAc
How it was run: as §1

[15] = target: Gal3S(b1-4)[Fuc(a1-3)]GlcNAc6S
How it was run: as §1

Gal3S4S(b1-4)GlcNAc = target: Gal3S4S(b1-4)GlcNAc
How it was run: as §1

Gal3S6S(b1-4)GlcNAc = target: Gal3S6S(b1-4)GlcNAc
How it was run: as §1

Gal3S6S(b1-4)GlcNAc6S = target: Gal3S6S(b1-4)GlcNAc6S
How it was run: as §1

Gal4S(b1-4)GlcNAc = target: Gal4S(b1-4)GlcNAc
How it was run: as §1

Gal4S6S(b1-4)GlcNAc = target: Gal4S6S(b1-4)GlcNAc
How it was run: as §1

Gal6P(b1-4)GlcNAc = target: Gal6P(b1-4)GlcNAc
How it was run: as §1

Gal6S(b1-3)GlcNAc = target: Gal6S(b1-3)GlcNAc
How it was run: as §1

Gal6S(b1-3)GlcNAc6S = target: Gal6S(b1-3)GlcNAc6S
How it was run: as §1

Gal6S(b1-4)Glc = target: Gal6S(b1-4)Glc
How it was run: as §1

Gal6S(b1-4)Glc6S = target: Gal6S(b1-4)Glc6S
How it was run: as §1

Gal6S(b1-4)GlcNAc = target: Gal6S(b1-4)GlcNAc
How it was run: as §1

Gal6S(b1-4)GlcNAc6S = target: Gal6S(b1-4)GlcNAc6S
How it was run: as §1

GalNAc(a1-3)Gal = target: GalNAc(a1-3)Gal
How it was run: as §1

GalNAc(a1-3)GalNAc = target: GalNAc(a1-3)GalNAc
How it was run: as §1

[16] = target: GalNAc(a1-3)GalNAc(b1-3)Gal(a1-4)Gal(b1-4)Glc
How it was run: as §1

B1: DrGal9 (Danio rerio) (protein)
chain: MAFYQQPPYYNPRIPFSGPIQGGLQDGKSIIISGRVLPGANRFHVNLQCGSHSEANVALHFNPRYEDTDYVVNNSYLNRTWGSEERKYESPFAQGQTFTLQILVAQDKYKISTNGRHFMDYKHRIPFTQVDTVAVEGMVEVNSVAFQNPAGFIPPQAGYAPQYAVPPGCGFPAFPSAPNYTIPHKTVMNGGLHPGKNIVINGVVNPNAKSIIFNLCYRSGIAFHYNPRFDENVVVRNTNQMEKWGAEERFGGLPFHKGQPFQVTISCNPQHYNVFVNGKQEHTYKHRYTKLNDIDILEICGDLQLTSVQA
- glycan array binding signal (z-score) [1]: 0.065
- glycan array binding signal (z-score) [2]: 0.054
- glycan array binding signal (z-score) [3]: -0.086
- glycan array binding signal (z-score) [4]: -0.316
- glycan array binding signal (z-score) [5]: 0.213
- glycan array binding signal (z-score) [6]: 1.39
- glycan array binding signal (z-score) [7]: 0.018
- glycan array binding signal (z-score) [8]: -0.084
- glycan array binding signal (z-score) [9]: -0.202
- glycan array binding signal (z-score) [10]: -0.052
- glycan array binding signal (z-score) [11]: -0.007
- glycan array binding signal (z-score) (Gal(b1-4)GlcNAc6P): -0.383
- glycan array binding signal (z-score) (Gal(b1-6)Gal): -0.43
- glycan array binding signal (z-score) (Gal3S(b1-3)GalNAc): -0.102
- glycan array binding signal (z-score) (Gal3S(b1-3)GlcNAc): 0.475
- glycan array binding signal (z-score) [12]: -0.381
- glycan array binding signal (z-score) (Gal3S(b1-4)Glc): -0.058
- glycan array binding signal (z-score) (Gal3S(b1-4)Glc6S): -0.009
- glycan array binding signal (z-score) (Gal3S(b1-4)GlcNAc): 0.209
- glycan array binding signal (z-score) [13]: -0.331
- glycan array binding signal (z-score) [14]: -0.378
- glycan array binding signal (z-score) [15]: 0.306
- glycan array binding signal (z-score) (Gal3S4S(b1-4)GlcNAc): -0.41
- glycan array binding signal (z-score) (Gal3S6S(b1-4)GlcNAc): -0.365
- glycan array binding signal (z-score) (Gal3S6S(b1-4)GlcNAc6S): -0.358
- glycan array binding signal (z-score) (Gal4S(b1-4)GlcNAc): -0.397
- glycan array binding signal (z-score) (Gal4S6S(b1-4)GlcNAc): -0.382
- glycan array binding signal (z-score) (Gal6P(b1-4)GlcNAc): -0.374
- glycan array binding signal (z-score) (Gal6S(b1-3)GlcNAc): -0.42
- glycan array binding signal (z-score) (Gal6S(b1-3)GlcNAc6S): -0.377
- glycan array binding signal (z-score) (Gal6S(b1-4)Glc): -0.397
- glycan array binding signal (z-score) (Gal6S(b1-4)Glc6S): -0.401
- glycan array binding signal (z-score) (Gal6S(b1-4)GlcNAc): -0.415
- glycan array binding signal (z-score) (Gal6S(b1-4)GlcNAc6S): -0.397
- glycan array binding signal (z-score) (GalNAc(a1-3)Gal): -0.402
- glycan array binding signal (z-score) (GalNAc(a1-3)GalNAc): -0.378
- glycan array binding signal (z-score) [16]: -0.409
